In the supplement of paper PMC4166925:
± gives the standard deviation of the averaged measurements. Over roughly 33,000 sequences, “E-score (dimensionless, -0.5 to 0.5)” has its median near -0.046; the highest 2% begin near 0.36. The list shows a part of the results.

test system: T1, SpTbr T-box DNA-binding domain (GST fusion); assay: PBM E-score of 8-mer (E-score (dimensionless, -0.5 to 0.5)); Tbr is Tbrain of the sea star Patiria miniata (Pm) or the sea urchin Strongylocentrotus purpuratus (Sp); higher = stronger binding preference; most listed sequences are background and not binding sites; details: the construct has about 5 more residues each side
T1 sequence: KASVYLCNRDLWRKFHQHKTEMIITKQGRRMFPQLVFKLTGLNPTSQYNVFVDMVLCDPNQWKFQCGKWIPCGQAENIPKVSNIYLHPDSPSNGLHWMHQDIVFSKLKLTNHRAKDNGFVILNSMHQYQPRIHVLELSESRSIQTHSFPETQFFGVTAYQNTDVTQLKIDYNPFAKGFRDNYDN
Summary of the method: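 GST-fused Tbr T-box DNA-binding domains (the whole T-box plus about five flanking residues) were expressed in BL21 E. coli at 20 °C and purified by glutathione affinity chromatography. Universal Agilent oligonucleotide arrays were made double-stranded by primer extension, incubated with 200 nM protein in PBS (pH 7.5), then scanned and quantified. Every ungapped 8-mer was scored from probe intensities. The Universal PBM Analysis Suite gave each word an enrichment E-score, averaged over duplicate arrays.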

Sequence	PBM E-score of 8-mer
CAAAAGGA	-0.0102 ± 0.051
CGCACATA	0.357 ± 0.019
AGAGAGCT	-0.0758 ± 0.017
CCAGGCCG	-0.0516 ± 0.008
AGTTGGGG	-0.246 ± 0.013
ATTCAAGA	-0.184 ± 0.052
GACGAACA	0.0905 ± 0.086
GAAAACCA	-0.0648 ± 0.057
ATCGCATA	-0.023 ± 0.02
ATGGGATA	-0.19 ± 0.035
TGACTCAA	-0.0762 ± 0.042
ATCCAAAT	0.0769 ± 0.013
GCGGGCCC	-0.106 ± 0.053
CCCTCTTC	0.00724 ± 0.0096
ATTCCCAA	-0.227 ± 0.012
ACTGCTCA	-0.0696 ± 0.041
GGTCCTTA	-0.239 ± 0.013
AGATTCCG	-0.0246 ± 0.022
ACATTAAC	0.102 ± 0.018
AGTTCCGC	-0.036 ± 0.029
ACGAGGAT	-0.133 ± 0.0081
CTCCTTAC	-0.048 ± 0.025
AGCGTCCT	-0.149 ± 0.074
GTTTTTCA	0.243 ± 0.017
ATGTCGTG	0.126 ± 0.03

Sequence	PBM E-score of 8-mer
AGTTATAA	-0.0736 ± 0.083
CTAATTCA	0.0741 ± 0.0055
CGCATGTA	-0.128 ± 0.06
CGTACAAG	-0.163 ± 0.058
AAGCTCGA	-0.0878 ± 0.051
ACTGTTAC	0.168 ± 0.0045
CAGTGAAA	0.045 ± 0.043
ATGTCTGA	-0.166 ± 0.062
CATATTAA	-0.168 ± 0.067
ACAGCCGG	-0.111 ± 0.049
ACCAAGCA	-0.22 ± 0.018
AGTTATGC	-0.0697 ± 0.062
ACCGCCTA	-0.0533 ± 0.038
ACAGCACC	0.148 ± 0.0087
CCATTTTC	-0.121 ± 0.018
GGTTTGGA	-0.166 ± 0.017
GTGAGGGA	0.203 ± 0.055
TAAGCACA	-0.0209 ± 0.012
AATTCTGA	-0.152 ± 0.013
GTCCTCAA	-0.212 ± 0.03
CGGGTCCC	0.0456 ± 0.028
CAACGTCG	-0.0212 ± 0.069
GACGCGGA	-0.092 ± 0.043
ATGTGCTC	-0.253 ± 0.025
ATCCCATG	-0.172 ± 0.038

Sequence	PBM E-score of 8-mer
ATACACTC	-0.0398 ± 0.01
CTCAAGGC	-0.137 ± 0.013
ATCCAGCA	-0.148 ± 0.032
CCGCATAC	-0.233 ± 0.0039
GGTCAGCA	-0.152 ± 0.089
GCGTATAC	0.0364 ± 0.049
AGGAGAAC	-0.0962 ± 0.037
CGTTGTAC	-0.1168 ± 0.00054
ATGGAGTA	-0.255 ± 0.048
ACACAAAG	0.16 ± 0.035
CAAGTATG	0.147 ± 0.0066
TCGAGCGA	0.0225 ± 0.056
CAAATCAA	0.0155 ± 0.081
CCGCACAC	0.248 ± 0.033
AGATCGGA	-0.0303 ± 0.042
CCTGATTA	-0.0395 ± 0.011
AATTGTCC	-0.185 ± 0.1
ACAGTACA	0.0218 ± 0.031
ATGTGGCG	0.283 ± 0.072
GCCCTCGC	0.198 ± 0.083
GTGTATAA	-0.0246 ± 0.013
CCCGGGCC	-0.283 ± 0.013
CCGACTGA	-0.112 ± 0.0051
CACACTCA	0.407 ± 0.0072
CCGACGCC	0.24 ± 0.058

Sequence	PBM E-score of 8-mer
AATAGGGT	-0.142 ± 0.03
AGCCTCCC	-0.147 ± 0.11
ATACACTA	-0.106 ± 0.035
GAAGTCAA	-0.141 ± 0.046
AGCCTTTC	-0.149 ± 0.048
ATTCAACA	-0.131 ± 0.039
CCTTTAAC	0.141 ± 0.02
AATCCTTA	-0.108 ± 0.083
ATTCGCGA	0.392 ± 0.02
CCCCCCCG	-0.164 ± 0.042
AAAAGCCT	-0.0255 ± 0.047
ATAGTCAT	-0.0789 ± 0.01
CACGCTCC	0.187 ± 0.011
CAGATATA	-0.19 ± 0.057
CGAATCCG	0.0539 ± 0.017
AACAGTAC	0.0287 ± 0.021
CTTGAGGC	-0.131 ± 0.038
ATTGTACA	-0.205 ± 0.086
TTATGCAA	-0.26 ± 0.022
AAGTACGC	-0.0954 ± 0.029
ACGCTGGC	0.042 ± 0.073
GTGACAGA	0.283 ± 0.055
ACTGAACG	-0.268 ± 0.034
CGCCGGCA	0.169 ± 0.074
CAAAGGCC	-0.258 ± 0.044

Sequence	PBM E-score of 8-mer
ACGGGCCA	-0.135 ± 0.046
GACTGTGC	-0.124 ± 0.033
CCCCTGCG	-0.107 ± 0.065
CCGACCCA	-0.242 ± 0.0089
GAAACGAC	0.116 ± 0.046
AAAAAAAC	-0.0917 ± 0.073
ACCCCGTA	-0.00587 ± 0.023
CAAGGACG	-0.152 ± 0.084
ACCTAACA	0.302 ± 0.039
GCTGCACA	0.0656 ± 0.1
ACTTGAGG	-0.00245 ± 0.078
AGACAGTG	0.142 ± 0.02
AGACTTTA	-0.129 ± 0.0041
GAAATCTA	-0.265 ± 0.056
AGCACAGA	-0.133 ± 0.055
ATGTCTGG	-0.0896 ± 0.023
AGAATTCT	-0.188 ± 0.1
CCTGTCGC	0.278 ± 0.013
AGGGAATG	-0.277 ± 0.081
CCTTTTTC	-0.0994 ± 0.085
GTAGTTTA	0.0126 ± 0.092
GAATAGCA	0.189 ± 0.0036
GAACTGGC	-0.193 ± 0.04
CCGAATCG	-0.0388 ± 0.081
AGACCACA	-0.00177 ± 0.065

Sequence	PBM E-score of 8-mer
AGAAGAGC	-0.187 ± 0.051
ACTACGCG	0.116 ± 0.038
AAACGTCG	-0.117 ± 0.014
AATTATGT	-0.0597 ± 0.041
ACCGTTCC	-0.000825 ± 0.11
CCGTGAGC	0.167 ± 0.05
AGAGACGA	-0.123 ± 0.088
GCAGTGGC	0.136 ± 0.063
CACCAGTA	0.0243 ± 0.054
ATAGGGGC	-0.213 ± 0.0011
AAACTGGA	-0.0747 ± 0.033
CATTACAA	-0.169 ± 0.045
TCAACCGA	-0.0626 ± 0.069
CAGTATGG	-0.28 ± 0.043
CGATCGTC	0.101 ± 0.04
CCACAGTC	0.106 ± 0.036
CAGCGTAA	-0.053 ± 0.0028
AAACATAT	-0.0243 ± 0.006
AAGTGCCA	0.4045 ± 0.0038
GTTGTGGA	0.0677 ± 0.047
CGAAAAAC	0.0208 ± 0.028
GGATGCAA	-0.068 ± 0.01
CCCGTCCC	-0.148 ± 0.028
CGAGCATA	0.115 ± 0.027
GTAACTGA	0.0238 ± 0.12

Sequence	PBM E-score of 8-mer
CAAGGCTC	-0.14 ± 0.04
AGGTAGGA	-0.154 ± 0.047
GACCTAAA	-0.117 ± 0.041
GAAAGCAA	-0.0479 ± 0.068
ACACGATA	0.0502 ± 0.0083
TGGTCCAA	-0.227 ± 0.05
CTAGGGAG	-0.232 ± 0.037
ACCTTAGC	0.211 ± 0.014
CCGTAAGA	-0.193 ± 0.068
CTAGAACA	-0.0343 ± 0.012
AACCCCGA	-0.291 ± 0.066
TGAGCGAA	0.126 ± 0.1
GGGCCCCC	-0.275 ± 0.037
AGCGTACG	-0.105 ± 0.047
AGGGTCAT	-0.0914 ± 0.015
AACGTCGT	-0.0793 ± 0.016
GTGTAGTA	0.0211 ± 0.026
CTGGCTGA	-0.177 ± 0.019
AGTCGCAA	0.132 ± 0.0059
ATTAATAG	-0.0401 ± 0.09
CCCACCAA	-0.0327 ± 0.016
AAGGCCCT	-0.175 ± 0.06
